# Data reported in paper PMC4336329 (PLoS ONE, 2015).
# Screen size: about 310,000 compounds; about 14,000 (4.5%) showed an effect of 50% or more. Effects have a minus sign here. The list shows a part of the results.
# Biological target: human ether-à-go-go-related gene (hERG) potassium channel (human, UniProt Q12809)
# Assay: primary screen, population patch clamp on CHO cells stably expressing hERG
# 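Also: peak tail current of the secondary pulse compared with the same well before compound.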
# Sequence of human ether-à-go-go-related gene (hERG) potassium channel (Q12809 whole entry, looked up): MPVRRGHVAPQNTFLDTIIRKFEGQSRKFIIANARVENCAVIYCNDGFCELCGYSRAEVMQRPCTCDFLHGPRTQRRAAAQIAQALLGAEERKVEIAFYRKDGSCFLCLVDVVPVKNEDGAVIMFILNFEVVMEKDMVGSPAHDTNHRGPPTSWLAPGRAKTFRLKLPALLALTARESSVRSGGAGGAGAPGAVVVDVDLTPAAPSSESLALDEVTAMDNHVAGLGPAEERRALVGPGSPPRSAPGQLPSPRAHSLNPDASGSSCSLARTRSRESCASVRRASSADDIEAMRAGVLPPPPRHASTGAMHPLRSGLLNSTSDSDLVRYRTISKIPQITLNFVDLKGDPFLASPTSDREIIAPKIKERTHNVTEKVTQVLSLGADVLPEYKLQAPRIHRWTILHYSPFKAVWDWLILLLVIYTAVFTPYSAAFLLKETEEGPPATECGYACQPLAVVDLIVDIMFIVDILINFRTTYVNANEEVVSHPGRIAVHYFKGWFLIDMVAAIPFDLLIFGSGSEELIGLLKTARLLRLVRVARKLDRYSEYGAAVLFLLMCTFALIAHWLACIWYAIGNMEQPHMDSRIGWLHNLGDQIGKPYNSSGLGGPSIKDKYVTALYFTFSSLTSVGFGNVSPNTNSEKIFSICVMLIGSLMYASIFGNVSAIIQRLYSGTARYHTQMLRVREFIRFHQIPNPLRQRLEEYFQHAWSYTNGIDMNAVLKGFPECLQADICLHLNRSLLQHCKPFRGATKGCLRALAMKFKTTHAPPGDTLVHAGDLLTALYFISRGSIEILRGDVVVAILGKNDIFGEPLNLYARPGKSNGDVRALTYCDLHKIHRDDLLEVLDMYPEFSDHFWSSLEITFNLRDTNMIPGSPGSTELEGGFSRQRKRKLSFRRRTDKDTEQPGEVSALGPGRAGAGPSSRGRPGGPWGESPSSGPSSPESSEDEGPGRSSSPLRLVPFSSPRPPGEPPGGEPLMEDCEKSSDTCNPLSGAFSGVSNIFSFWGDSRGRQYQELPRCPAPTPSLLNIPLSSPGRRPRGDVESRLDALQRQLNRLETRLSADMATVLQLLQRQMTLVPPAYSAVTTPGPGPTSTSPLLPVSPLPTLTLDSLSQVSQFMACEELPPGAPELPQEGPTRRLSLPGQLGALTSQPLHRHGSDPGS
row,SMILES,"hERG current change (%, negative = inhibition) at 10uM [%]"
1,COc1ccc(/C(C)=N/NC(=O)CCC(=O)Nc2ccc(Cl)cc2Cl)c(OC)c1,-3.74
2,CCOc1ccc(S(=O)(=O)N2CCCCCC2)c2ccccc12,3.28
3,CCc1ccc(C(=O)/C=C/Nc2ccc(S(=O)(=O)Nc3onc(C)c3C)cc2)cc1,6.45
4,S=C(NCc1ccco1)N1CCN(c2ccccc2Cl)CC1,-17.4
5,O=C(/C=C/c1ccc(F)cc1)NC(=S)NNC(=O)c1cccnc1,13.6
6,O=C(N/C(=C/c1cccc([N+](=O)[O-])c1)C(=O)N1CCCC1)c1ccccc1,-46
7,CC(=O)c1ccc(OCCNS(=O)(=O)c2ccc(-n3cnnn3)cc2)cc1,-55.3
8,CCCn1c(SCC(=O)Nc2cccc(S(=O)(=O)NC3=NCCCCC3)c2)nc2ccccc2c1=O,-44.8
9,COc1ccc(C(C)=O)cc1COC(=O)CSCC(=O)Nc1ccc(C)cc1,-17.9
10,Cc1ccc(C(=O)Nc2nnc(-c3ccc(C(C)(C)C)cc3)s2)cc1,4.81
11,CCCn1c(=O)c(C(=O)NCc2ccccc2Cl)c(O)c2ccccc21,32.6
12,Cc1ccc(S(=O)(=O)NCc2ccc(C(=O)NC3CCC(C)CC3)cc2)cc1 (centres unmarked),0.922
13,Cc1cc2oc(C(=O)Nc3c(C)n(C)n(-c4ccccc4)c3=O)c(C)c2cc1Cl,-72.2
14,CCCOc1ccc(/C=C/C(=O)O)cc1OC,21.6
15,COC(=O)c1sc(S(=O)(=O)Nc2ccc(C)c(C)c2)c(C(=O)OC)c1C,6.57
16,CC(=O)c1ccc(NCC2COc3ccccc3O2)c([N+](=O)[O-])c1 (centres unmarked),-12.7
17,Cc1cc(NC(=O)CSc2nnc(COc3cccc(C)c3C)n2C)no1,10.2
18,Cc1cc(C(=O)Nc2ncn(Cc3ccc(F)cc3)n2)ccc1[N+](=O)[O-],-51.7
19,O=C(Nc1ccon1)c1cccc(S(=O)(=O)N2CCCCC2)c1,-4.24
20,Cc1ccc(C(=O)OCCc2sc[n+](Cc3ccccc3)c2C)cc1.[Cl-],-70.1
21,Cc1cccc(C(C)C)c1NC(=O)COC(=O)CNS(=O)(=O)c1ccccc1,14.5
22,Cc1cc(C)nc(N2CCC(C(=O)NCCc3ccccc3)CC2)n1,5.74

row,SMILES,"hERG current change (%, negative = inhibition) at 10uM [%]"
1,O=C(NNC(=S)NC(=O)c1ccccc1)c1cccnc1,3.97
2,O=C(NCCCn1ccnc1)c1ccc(Cl)c(Cl)c1,-17.3
3,COc1cc(C(=O)NC2CCCC(C)C2C)ccc1OCC(=O)N1CCOCC1 (centres unmarked),9.15
4,O=C(CN1C(=O)c2ccccc2C1=O)c1ccc(F)cc1,-4.57
5,CCc1ccc(N2C(=O)CN(Cc3ccccc3)C2=S)cc1,18.5
6,COc1ccccc1NC(=O)c1nnn(CC(=O)Nc2cccc(SC)c2)c1N,5.11
7,Cc1nc2scc(C)n2c(=O)c1S(=O)(=O)Nc1ccc(N2CCOCC2)cc1,-0.179
8,COc1ccc(CNC(=O)CN(Cc2ccc(Cl)cc2)S(C)(=O)=O)cc1,-45.4
9,Cc1cc(OCc2nnc(SCC(=O)OC3CCCCC3)o2)ccc1Cl,-5.56
10,Cc1ccccc1C(=O)NCC(=O)OC(C)C(=O)NCc1ccco1 (centres unmarked),4.93
11,O=C1CSC(=S)N1N1C(=O)c2cccc([N+](=O)[O-])c2C1=O,14.5
12,O=C(CSc1ccc(Cl)cc1)NN=C1CCCCCC1,-18.5
13,O=C(Nc1ccc2c(c1)OCCO2)c1cc2sccc2n1Cc1ccc(F)cc1,3.66
14,Nc1nc(CSc2nnnn2-c2ccc(Cl)cc2)nc(N2CCOCC2)n1,12.2
15,Cc1ccccc1C(=O)NC1CC2CCCC(C1)N2C(=O)Nc1ccccc1 (centres unmarked),-0.97
16,COc1ccc(NC(=O)CCc2c(C)nc3nc(CNC(=O)c4cccc(F)c4)nn3c2C)cc1OC,36.7
17,O=C(Nc1cccc(S(=O)(=O)N2CCCC2)c1)c1cc(S(=O)(=O)N2CCOCC2)ccc1F,-24.7
18,CC(C)CCNC(=O)c1ccc(Cn2c(=S)[nH]c3ccccc3c2=O)cc1,12.1
19,S=C(Nc1ccccc1)Nc1cccc(Cl)c1Cl,4.64
20,COC(=O)c1sccc1NC(=O)Nc1cc(OC)ccc1OC,-57.4
21,Cc1ccc(CN2C(=O)CCC2C(=O)NCCCN2CCCCC2C)cc1 (centres unmarked),8.87
22,C/C(=N\NC(=O)c1cccc([N+](=O)[O-])c1)c1ccncc1,-10.9

row,SMILES,"hERG current change (%, negative = inhibition) at 10uM [%]"
1,CCN(CC)S(=O)(=O)c1ccc(-c2nnc3sc4cccc(C)c4n23)cc1,-3.16
2,O=C(NCc1ccc2c(c1)OCO2)c1cc(-c2ccccc2)on1,-0.746
3,COc1cc2[nH]c(=S)nc(NCc3cccc(Cl)c3)c2cc1OC,11.2
4,Cn1c(SCC(=O)Nc2nccs2)nnc1-c1ccc(S(=O)(=O)N2CCCC2)cc1,2.67
5,N#Cc1cnc(SCCc2ccccc2)nc1N,-10.1
6,O=C(/C=C/c1ccccc1)OCCCN=C1NS(=O)(=O)c2ccccc21,-15.6
7,CCn1c2ccccc2c2cc(CN3CCN(Cc4cc(OC)ccc4O)CC3)ccc21.O=C(O)C(=O)O,7.15
8,CC1=C(C(=O)Nc2ccccc2)C(c2cccs2)NC(=O)N1 (centres unmarked),15.6
9,Cc1cc2c(c(=O)o1)C1(C(=O)N(C)c3ccccc31)C(C#N)=C(N)O2 (centres unmarked),18.8
10,Cc1ccc2c(Cl)cc(Cl)c(OCC(=O)NC(=O)NCc3ccco3)c2n1,-11.7
11,CCN(c1ccc(OC)cc1)S(=O)(=O)c1csc(C(=O)N2CCCC2)c1,-35
12,Cl.O=C(CN1CCCC1)Nc1ccc(OC(F)(F)F)cc1,-41.1
13,Nc1nc(CSc2ccccn2)nc(Nc2ccccc2)n1,1.81
14,Cc1ccccc1OCC(=O)Nn1c(COc2ccccc2)nc2ccccc2c1=O,-26.1
15,CN1CCN(C(=O)CSc2nc(-c3ccco3)cc(C(F)(F)F)n2)CC1,15.3
16,CCN(c1ccccc1)c1cc2ccccc2c(=O)[nH]1,3.64
17,COc1cccc(-c2noc(-c3ccc(Br)o3)n2)c1,25.3
18,COc1ccc(NC(=O)C2CC(=O)n3c(nc4ccccc43)N2)cc1 (centres unmarked),4.58
19,C/C(=N\NC(=O)c1c(Cl)c(C)nn1C)c1ccc(NC(=O)c2ccncc2)cc1,7.84
20,Cc1ccc(C(=O)N/C(=C\c2ccco2)C(=O)NC2CCS(=O)(=O)C2)cc1 (centres unmarked),-18.3
21,COc1cc(OC)c(NC(=O)C2CCN(S(=O)(=O)c3ccc4c(c3)CC(C)N4C(C)=O)CC2)cc1Cl (centres unmarked),5.17
22,CCOC(=O)COc1ccc(S(=O)(=O)Nc2ccc(C)cc2)cc1,-33

row,SMILES,"hERG current change (%, negative = inhibition) at 10uM [%]"
1,Cc1ccc(C(=O)Nc2c(C#N)c(C)c(C)n2Cc2ccccc2)cc1,13.2
2,Cc1cc(C)n2nc(C(=O)Nc3ccc(N4CCOCC4)cc3)nc2n1,1.03
3,CCOC(=O)C(CC)Sc1cc(C)nc2ccc(OC)cc12 (centres unmarked),-13.4
4,O=C(NCC1CCCO1)Nc1cccc(Cl)c1 (centres unmarked),-2.55
5,Cc1ccc(OCC(=O)NN=C2c3ccccc3-c3ccccc32)cc1,-16.3
6,CCn1c(CNC(=O)c2cc(OC)c(OC)c(OC)c2)cc2ccccc21,6.52
7,OCCN(Cc1ccccc1)C(=S)Nc1ccc(Cl)cc1Cl,-0.423
8,CCN(CC(=O)Nc1ccccc1C(=O)Nc1ccccc1)Cc1nc2ccccc2c(=O)[nH]1,-75.6
9,CN1CCc2ccc(NC(=O)c3ccc(C(F)(F)F)cc3)cc2C1,-53.8
10,Cc1csc(N/N=C\c2cccnc2)n1,-8.35
11,Cc1ccc(NC2CCCN(C(=O)c3ccc(F)cc3)C2)cc1C (centres unmarked),-9.71
12,CCOC(=O)C1=C(C)NC(=S)NC1c1cccs1 (centres unmarked),18.9
13,CN(C)c1cccc(C(=O)NCC(c2ccco2)N(C)C)c1 (centres unmarked),5.5
14,COc1ccc(NC(=O)c2cc3sccc3n2Cc2ccc(F)cc2)cc1OC,-8.54
15,Cc1cccc(OC(=O)CN2C(=O)C3C4CCC(C4)C3C2=O)c1C (centres unmarked),7.14
16,Cc1[nH]c2ccccc2c1C(=O)CSC(=S)N1CCCCC1,-8.66
17,COc1ccc2c(c1)cc(C)c1nnc(SCC(=O)N(C)c3nc(-c4ccccc4)cs3)n12,22.3
18,CCOC(=O)CC(NC(=O)c1cccc2c1C(=O)N(Cc1cccnc1)C2)c1ccc(OCC)c(OC)c1 (centres unmarked),-14.6
19,O=C(Cc1c[nH]c2ccccc12)N[C@@H](Cc1c[nH]c2ccccc12)C(=O)O,13.1
20,COc1cccc(/C=N/NC(=O)c2ccncc2)c1OC(=O)c1ccc(Br)cc1,13.3
